Test results published in PubChem BioAssay AID938 (National Center for Advancing Translational Sciences (NCATS), 2007).
In all, about 73,000 compounds went through this assay and about 1,800 (2.5%) were called active. Inconclusive means that the source gave no clear call. Such entries were picked first, then a sample of the others. Calls come from the whole dose curve; as a rule, active = well fitted activation curve with a large enough effect; inconclusive = small, poorly fitted or top-dose-only effect; inactive = no such curve, though single readings can be large or run the other way. No potency is given beside an inconclusive call; the fits are too rough.

Experiment: qHTS Assay for Agonists of the Thyroid Stimulating Hormone Receptor: Activators of Intracellular cAMP Concentrations in Parental HEK 293; note: nearly all actives have a fitted effect of over 55% in size; for activation: % of control where 0% means no effect
Conditions: parental HEK293 CNG cAMP sensor, membrane potential fluorescence; activation: at 57.1 µM (top of the series) unless noted
Method in brief: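 Counterscreen for endogenous-receptor signalling: CNG-channel HEK 293 cells report cAMP rise by membrane depolarization. After 60 min dye equilibration with 100 uM RO 20-1724, compounds incubated 30 min before bottom-read fluorescence at 590 nm.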
Potency is the fitted concentration of half-maximal effect; tags give direction and shape of the fitted curve.

Compound	Potency	activation
CC(=O)Nc1ccc(NC(=O)c2cc(C)nn2-c2ccccc2)cc1	inconclusive [activator, single point]	
COc1cccc(-c2cc(C(=O)N3CCCCC3C)no2)c1 (stereo not drawn)	inconclusive [activator, partial curve]	
CN(C)S(=O)(=O)n1cnc(-c2ccccc2)c1-c1ccccc1	inconclusive [activator, single point]	
CC(C)CCn1c(SCc2ccc(Cl)cc2)nc2c1c(=O)[nH]c(=O)n2C	active: 10 µM	
CCOc1ccc(C2=Nn3c(nnc3-c3ccc(OC)cc3)SC2)cc1	inconclusive [activator, single point]	
CCOc1ccccc1NC(=O)CN(c1ccc(C)cc1)S(=O)(=O)c1c(C)noc1C	inconclusive [activator, partial curve]	
CN1CCN(c2ncc3nc(-c4ccccc4)c(=O)n(C4CC4)c3n2)CC1	inconclusive [activator, full curve]	
O=C1c2oc3ccc(F)cc3c(=O)c2C(c2cccc(O)c2)N1CCCN1CCOCC1 (stereo not drawn)	inactive	
CC1(C)CCC(C)(C)c2cc(C(=O)Nc3ccc(C(=O)O)cc3)ccc21	inconclusive [activator, full curve, poor fit]	
COc1cc2sc(C)nc2c2sccc12	inconclusive [activator, single point]	
CCOc1ccccc1O[C@@H](c1ccccc1)[C@@H]1CNCCO1	inactive	
O=S(=O)(NC1CCc2ccccc21)c1ccc(S(=O)(=O)N2CCCC2)cc1 (stereo not drawn)	inconclusive [activator, partial curve]	
CCCCn1c(SCc2ccc(C(=O)OC)o2)nc2cc(S(N)(=O)=O)ccc21	inconclusive [activator, partial curve]	
CCCCCOC(=O)c1ccc(NC(=O)c2ccco2)cc1	inconclusive [activator, full curve, poor fit]	
CCOc1ccccc1CN(CCc1ccc2c(c1)OCO2)Cc1ccccn1	active: 15.8 µM	
Cc1cc(N2CCN(Cc3ccc4c(c3)OCO4)CC2)n2ncnc2n1	inactive	
CC(C)CCn1c(N2CCC(C(N)=O)CC2)nc2c1c(=O)[nH]c(=O)n2C	inconclusive [activator, single point]	
COc1ccc(NC(=O)c2ccc3c(c2)C(=O)N(Cc2cccnc2)C3=O)c(OC)c1	inactive	
COC(=O)c1ccccc1NC(=O)C(C)Oc1ccccc1 (stereo not drawn)	inconclusive [activator, single point]	
COC(=O)[C@@]1(Cc2ccc(F)cc2)[C@H]2c3cc(C(=O)N4CCCC4)n(Cc4ccccn4)c3C[C@H]2CN1C(=O)c1ccccc1	inconclusive [activator, partial curve]	
COc1cccc(C2CC(=O)Nc3c2c(=O)n(C)c(=O)n3C)c1OC (stereo not drawn)	inconclusive [activator, single point]	
Cc1cc(C(=O)OCC(=O)NCc2ccco2)c(C)n1-c1ccccc1	inconclusive [activator, partial curve]	

Compound	Potency	activation
CCN1C(=O)CSc2ccc(C(=O)NC3CCCCC3)cc21	inconclusive [activator, single point]	
CCC(c1nnnn1CCOC)N1CCN(c2cccc(C(F)(F)F)c2)CC1 (stereo not drawn)	inconclusive [activator, full curve]	
Cc1ccc(-n2c(C)cc(C(=O)CSc3nncs3)c2C)cc1	active: 25.1 µM	
COCCNc1nc(C)nc2c1nc(-c1ccccc1)n2CCCN1CCCCC1C (stereo not drawn)	inactive	
CCOC(=O)Cc1cnc(NC(=O)c2ccccc2)s1	inconclusive [activator, single point]	
O=C(c1ccco1)N1CCC[C@@]2(CCN(Cc3nccs3)C2)C1	inconclusive [activator, single point]	
Cc1ccc(S(=O)(=O)N2CCN(C)CC2)cc1-c1nnc2c3ccccc3c(C)nn12	inactive	
C=CCn1c(SCC(=O)NCc2ccco2)nc2sc3c(c2c1=O)CCC3	inconclusive [activator, partial curve]	
CC1(C)CC(Nc2ccc(Nc3ccccc3)cc2)CC(C)(C)N1		inactive: -4.13% [at 11.4 µM]
COc1ccc(OCC(=O)Nc2ccc(S(=O)(=O)N3CCCCCC3)cc2)cc1	inconclusive [activator, single point]	
N[C@H](CCC(=O)NCC(=O)O)C(=O)O	inactive	
CCn1c(=O)cc(SCC(=O)NCc2cccnc2)c2ccccc21	inconclusive [activator, single point]	
COC(=O)[C@@]1(Cc2ccc(F)cc2)[C@H]2c3cc(C(=O)N4CCCC4)n(Cc4cc(F)cc5c4OCOC5)c3C[C@H]2CN1C(=O)c1ccccc1	inconclusive [activator, partial curve]	
COc1ccc(-n2nnc3c(SCC(=O)NCC4CCCO4)ncnc32)cc1 (stereo not drawn)	inconclusive [activator, partial curve]	
Cc1cc(C(=O)CSc2nnc(N)s2)c(C)n1CCc1ccc(Cl)cc1	active: 25.1 µM	
Cc1nc(NCCO)c2nc(-c3ccccc3)n(CC3CCN(C)CC3)c2n1	inactive	
Fc1cccc(-c2cc3nc4c(c(N5CCC6(CC5)OCCO6)n3n2)CCCC4)c1	inconclusive [activator, single point]	
O=C(Cn1cnc2c(nnn2-c2ccccc2)c1=O)NCC1CCCO1 (stereo not drawn)	inconclusive [activator, single point]	
CCCN(CCc1ccccc1)[C@H]1CCc2c(O)cccc2C1	inconclusive [activator, partial curve]	
Cc1cc(C(=O)NCc2cccnc2)cs1	inconclusive [activator, single point]	
COc1cccc(-c2cc(NCc3ccc(OC)cc3OC)ncn2)c1	inconclusive [activator, partial curve]	
